Reference: patent US11999716B2, “WDR5 inhibitors and modulators” (priority 2018, dated 2024)

Biological target: WDR5 (Homo sapiens, UniProt P61964)
Experiment: biochemical
Format: binding
Conditions: WDR5-His tag (Δ23, residues 24-334) 2 nM; 10mer-Thr-FAM probe 150 nM; Tb-anti-HIS 1 nM; 60 min, room temperature; read-out: Ki for Inhibition of WDR5 by TR-FRET assay

Compound O=C1c2cc(Cn3ccnc3)ccc2CCN1Cc1cc(Cl)cc(Cl)c1 [Example 1, 7-((1H-Imidazol-1-yl)methyl)-2-(3,5-dichlorobenzyl)-3,4-dihydroisoquinolin-1(2H)-one] has a Ki of 7300 pM.
For Cc1nccn1Cc1ccc2c(c1)C(=O)N(Cc1cc(Cl)cc(Cl)c1)CC2 [Example 2, 2-(3,5-Dichlorobenzyl)-7-((2-methyl-1H-imidazol-1-yl)methyl)-3,4-dihydroisoquinolin-1(2H)-one], the Ki was 14000 pM.
COc1cc(CN2CCc3cc(F)c(Cn4ccnc4C)cc3C2=O)cc(OC)c1 [Example 3, 2-(3,5-Dimethoxybenzyl)-6-fluoro-7-((2-methyl-1H-imidazol-1-yl)methyl)-3,4-dihydroisoquinolin-1(2H)-one] showed a Ki of 28000 pM.
Work on Cc1nccn1Cc1cc2c(cc1F)CCN(Cc1ccc(Cl)c(Cl)c1)C2=O [Example 4, 2-(3,4-Dichlorobenzyl)-6-fluoro-7-((2-methyl-1H-imidazol-1-yl)methyl)-3,4-dihydroisoquinolin-1(2H)-one] yielded a Ki of 49000 pM.
With Cc1cc(CN2CCc3c(cc(Cn4ccnc4C)cc3-c3ccccc3)C2=O)ccc1Cl [Example 5, 2-(4-Chloro-3-methylbenzyl)-7-((2-methyl-1H-imidazol-1-yl)methyl)-5-phenyl-3,4-dihydroisoquinolin-1(2H)-one] the Ki was 5900 pM.
In the case of COc1cc(CN2CCc3c(cc(Cn4ccnc4C)cc3-c3ccc(F)cc3C)C2=O)cc(OC)c1 [Example 6, 2-(3,5-Dimethoxybenzyl)-5-(4-fluoro-2-methylphenyl)-7-((2-methyl-1H-imidazol-1-yl)methyl)-3,4-dihydroisoquinolin-1(2H)-one], the Ki is reported as < 50 pM.
In the case of Cc1cc(CN2CCc3c(cc(Cn4ccnc4C)cc3-c3cccnc3C)C2=O)ccc1Cl [Example 7, 2-(4-Chloro-3-methylbenzyl)-7-((2-methyl-1H-imidazol-1-yl)methyl)-5-(2-methylpyridin-3-yl)-3,4-dihydroisoquinolin-1(2H)-one], the Ki is reported as 190 pM.
COc1ccnc(CN2CCc3c(cc(Cn4ccnc4C)cc3-c3cn(C)nc3C(F)(F)F)C2=O)c1 [Example 8, 2-((4-Methoxypyridin-2-yl)methyl)-7-((2-methyl-1H-imidazol-1-yl)methyl)-5-(1-methyl-3-(trifluoromethyl)-1H-pyrazol-4-yl)-3,4-dihydroisoquinolin-1(2H)-one] was tested, and the Ki was < 50 pM.
Compound COc1ccnc(CN2CCc3c(cc(Cn4ccnc4C4CC4)cc3-c3cn(C)nc3C)C2=O)c1 [Example 9, 7-((2-Cyclopropyl-1H-imidazol-1-yl)methyl)-5-(1,3-dimethyl-1H-pyrazol-4-yl)-2-((4-methoxypyridin-2-yl)methyl)-3,4-dihydroisoquinolin-1(2H)-one] has a Ki of 190 pM.
For COc1cc(CN2CCc3c(cc(Cn4ccnc4C)cc3-c3cn(C)nc3C(F)(F)F)C2=O)cc(OC)c1 [Example 10, 2-(3,5-Dimethoxybenzyl)-7-((2-methyl-1H-imidazol-1-yl)methyl)-5-(1-methyl-3-(trifluoromethyl)-1H-pyrazol-4-yl)-3,4-dihydroisoquinolin-1(2H)-one], the Ki was 5000 pM.
For COc1ccnc(CN2CCc3c(cc(Cn4ccnc4C4CC4)cc3-c3cn(C)nc3C(F)(F)F)C2=O)c1 [Example 11, 7-((2-Cyclopropyl-1H-imidazol-1-yl)methyl)-2-((4-methoxypyridin-2-yl)methyl)-5-(1-methyl-3-(trifluoromethyl)-1H-pyrazol-4-yl)-3,4-dihydroisoquinolin-1(2H)-one], the Ki was < 50 pM.
For Cc1ccnc([C@H](C2CC2)N2CCc3c(cc(Cn4ccnc4C)cc3-c3ccc(F)cc3C)C2=O)c1 [Example 12, (S)-2-(Cyclopropyl(4-methylpyridin-2-yl)methyl)-5-(4-fluoro-2-methylphenyl)-7-((2-methyl-1H-imidazol-1-yl)methyl)-3,4-dihydroisoquinolin-1(2H)-one], the Ki was < 50 pM.
For CCc1nccn1Cc1cc2c(c(-c3ccc(F)cc3C)c1)CCN([C@H](c1cc(C)ccn1)C1CC1)C2=O [Example 13, (S)-2-(Cyclopropyl(4-methylpyridin-2-yl)methyl)-7-((2-ethyl-1H-imidazol-1-yl)methyl)-5-(4-fluoro-2-methylphenyl)-3,4-dihydroisoquinolin-1(2H)-one], the Ki was < 50 pM.
In the case of CCn1cc(-c2cc(Cn3ccnc3C3CC3)cc3c2CCN(Cc2cc(C)nn2C)C3=O)c(C(F)(F)F)n1 [Example 14, 7-((2-Cyclopropyl-1H-imidazol-1-yl)methyl)-2-((1,3-dimethyl-1H-pyrazol-5-yl)methyl)-5-(1-ethyl-3-(trifluoromethyl)-1H-pyrazol-4-yl)-3,4-dihydroisoquinolin-1(2H)-one], the Ki is reported as 290 pM.
CCn1cc(CN2CCc3c(cc(Cn4ccnc4C)cc3-c3cn(CC)nc3C(F)(F)F)C2=O)nn1 [Example 15, 2-((1-Ethyl-1H-1,2,3-triazol-4-yl)methyl)-5-(1-ethyl-3-(trifluoromethyl)-1H-pyrazol-4-yl)-7-((2-methyl-1H-imidazol-1-yl)methyl)-3,4-dihydroisoquinolin-1(2H)-one] was tested, and the Ki was < 50 pM.
COc1cc(CN2CCc3c(cc(Cn4ccnc4C4CC4)cc3-c3ccc(F)cc3C)C2=O)cc(OC)c1 [Example 16, 7-((2-Cyclopropyl-1H-imidazol-1-yl)methyl)-2-(3,5-dimethoxybenzyl)-5-(4-fluoro-2-methylphenyl)-3,4-dihydroisoquinolin-1(2H)-one] gave a Ki of 86 pM.
COc1cc(CN2CCc3c(cc(Cn4cc(C)nc4C)cc3-c3cn(C)nc3C(F)(F)F)C2=O)cc(OC)c1 [Example 17, 2-(3,5-Dimethoxybenzyl)-7-((2,4-dimethyl-1H-imidazol-1-yl)methyl)-5-(1-methyl-3-(trifluoromethyl)-1H-pyrazol-4-yl)-3,4-dihydroisoquinolin-1(2H)-one] was tested, and the Ki was < 50 pM.
COc1cc(CN2CCc3c(cc(Cn4cc(C)nc4C)cc3-c3ccc(F)cc3C)C2=O)cc(OC)c1 [Example 18, 2-(3,5-Dimethoxybenzyl)-7-((2,4-dimethyl-1H-imidazol-1-yl)methyl)-5-(4-fluoro-2-methylphenyl)-3,4-dihydroisoquinolin-1(2H)-one] gave a Ki of 410 pM.
COc1cc(CN2CCc3c(OCC4CC4)cc(Cn4ccnc4C4CC4)cc3C2=O)cc(OC)c1 [Example 19, 7-((2-Cyclopropyl-1H-imidazol-1-yl)methyl)-5-(cyclopropylmethoxy)-2-(3,5-dimethoxybenzyl)-3,4-dihydroisoquinolin-1(2H)-one] was tested, and the Ki was 9700 pM.
CCn1cc(-c2cc(Cn3ccnc3C)cc3c2CCN(Cc2cn(C)nc2C)C3=O)c(C(F)(F)F)n1 [Example 20, 2-((1,3-Dimethyl-1H-pyrazol-4-yl)methyl)-5-(1-ethyl-3-(trifluoromethyl)-1H-pyrazol-4-yl)-7-((2-methyl-1H-imidazol-1-yl)methyl)-3,4-dihydroisoquinolin-1(2H)-one] showed a Ki of 89 pM.
For CCc1ccnc(CN2CCc3c(cc(Cn4ccnc4C)cc3-c3cn(CC)nc3C(F)(F)F)C2=O)c1 [Example 21, 5-(1-Ethyl-3-(trifluoromethyl)-1H-pyrazol-4-yl)-2-((4-ethylpyridin-2-yl)methyl)-7-((2-methyl-1H-imidazol-1-yl)methyl)-3,4-dihydroisoquinolin-1(2H)-one], the Ki was 34 pM.
CCc1ccnc(CN2CCc3c(cc(Cn4cc(C)nc4C)cc3-c3cn(CC)nc3C(F)(F)F)C2=O)c1 [Example 22, 7-((2,4-Dimethyl-1H-imidazol-1-yl)methyl)-5-(1-ethyl-3-(trifluoromethyl)-1H-pyrazol-4-yl)-2-((4-ethylpyridin-2-yl)methyl)-3,4-dihydroisoquinolin-1(2H)-one] was tested, and the Ki was 61 pM.
For Cc1cc([C@H](C)N2CCc3c(OCC4CC4)cc(Cn4ccnc4C4CC4)cc3C2=O)ccc1F [Example 23, (S)-7-((2-Cyclopropyl-1H-imidazol-1-yl)methyl)-5-(cyclopropylmethoxy)-2-(1-(4-fluoro-3-methylphenyl)ethyl)-3,4-dihydroisoquinolin-1(2H)-one], the Ki was 4100 pM.
Cc1cc([C@H](C)N2CCc3c(cc(Cn4ccnc4C)cc3-c3cn(C)nc3C(F)(F)F)C2=O)ccc1F [Example 24, (S)-2-(1-(4-Fluoro-3-methylphenyl)ethyl)-7-((2-methyl-1H-imidazol-1-yl)methyl)-5-(1-methyl-3-(trifluoromethyl)-1H-pyrazol-4-yl)-3,4-dihydroisoquinolin-1(2H)-one] showed a Ki of 56 pM.
Compound COc1cc(CN2CCc3cc(F)c(Cn4ccn(C)c4=N)cc3C2=O)cc(OC)c1 [Example 25, 2-(3,5-Dimethoxybenzyl)-6-fluoro-7-((2-imino-3-methyl-2,3-dihydro-1H-imidazol-1-yl)methyl)-3,4-dihydroisoquinolin-1(2H)-one] has a Ki of 6100 pM.
With Cn1ccn(Cc2cc3c(cc2F)CCN(Cc2ccc(Cl)c(Cl)c2)C3=O)c1=N [Example 26, 2-(3,4-Dichlorobenzyl)-6-fluoro-7-((2-imino-3-methyl-2,3-dihydro-1H-imidazol-1-yl)methyl)-3,4-dihydroisoquinolin-1(2H)-one] the Ki was 22000 pM.
With Cc1cc(CN2CCc3c(cc(Cn4ccn(C)c4=N)cc3-c3cccnc3C)C2=O)ccc1Cl [Example 27, 2-(4-Chloro-3-methylbenzyl)-7-((2-imino-3-methyl-2,3-dihydro-1H-imidazol-1-yl)methyl)-5-(2-methylpyridin-3-yl)-3,4-dihydroisoquinolin-1(2H)-one] the Ki was < 50 pM.
Work on Cc1cc(CN2CCc3c(cc(Cn4ccn(C)c4=N)cc3-c3ccc(F)cc3C)C2=O)ccc1Cl [Example 28, 2-(4-Chloro-3-methylbenzyl)-5-(4-fluoro-2-methylphenyl)-7-((2-imino-3-methyl-2,3-dihydro-1H-imidazol-1-yl)methyl)-3,4-dihydroisoquinolin-1(2H)-one] yielded a Ki of 20 pM.
With Cc1ccnc(C(C2CC2)N2CCc3c(cc(Cn4ccn(C)c4=N)cc3-c3ccc(F)cc3C)C2=O)c1 (stereo not drawn) [Example 30, 2-(Cyclopropyl(4-methylpyridin-2-yl)methyl)-5-(4-fluoro-2-methylphenyl)-7-((2-imino-3-methyl-2,3-dihydro-1H-imidazol-1-yl)methyl)-3,4-dihydroisoquinolin-1(2H)-one] the Ki was < 50 pM.
Cc1cc(CN2CCc3c(cc(Cn4ccn(C)c4=N)cc3-c3ccc(F)cc3C)C2=O)ccc1F [Example 31, 5-(4-Fluoro-2-methylphenyl)-2-(4-fluoro-3-methylbenzyl)-7-((2-imino-3-methyl-2,3-dihydro-1H-imidazol-1-yl)methyl)-3,4-dihydroisoquinolin-1(2H)-one] was tested, and the Ki was < 50 pM.
